# Experimental data: publication PMC12136788
# Some of the results follow.
# T1: UNK ZnF1-6 (called full-length) (human, UniProt Q9C0B0 30-357)
# T1 sequence: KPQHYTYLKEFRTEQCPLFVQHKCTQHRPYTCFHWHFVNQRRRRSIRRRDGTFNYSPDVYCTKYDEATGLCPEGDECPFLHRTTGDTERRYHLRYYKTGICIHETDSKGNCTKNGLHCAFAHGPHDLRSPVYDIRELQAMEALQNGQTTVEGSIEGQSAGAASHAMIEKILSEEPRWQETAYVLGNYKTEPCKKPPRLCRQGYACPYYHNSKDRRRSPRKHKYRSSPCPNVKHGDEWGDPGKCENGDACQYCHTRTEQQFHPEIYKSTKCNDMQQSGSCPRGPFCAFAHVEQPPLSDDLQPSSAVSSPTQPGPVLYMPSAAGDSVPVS
# B1: chr6:122453778:122453910:-|CDS|ENSG00000111897|unk|FALSE|unique (ssRNA)
# RNA: GGGAGUUCUACAGUCCGACGAUCCCUUUCAGUGUGGUUUUAUGUAGGCAUGGCAGGUGCCUUUUGUUUCAUCCUCAUACAACUAGUCUUACUUAUUGAUUUUGCACAUUCAUGGAAUGAAUCGUGGGUUGAAAAAAUGGAAGACAACAGAGGAUUGAGCAUCA
# B2: chr19:57572896:57572997:-|CDS|ENSG00000083817|unk|total|mutant (ssRNA)
# RNA: GGGAGUUCUACAGUCCGACGAUCCAUCGGAGAAUCCACACUGGAGAAAGGCCUUAUGUGUGUGGUCAGUGUGGGAAAUCAUUCCGCCAAAGAGCCACCCUCAUUAAACAUCACAGAGUUCACACUGGAGAAAGGCCUUACGAGCAACAGAGGAUUGAGCAUCA
# B3: chr7:65954205:65954306:+|CDS_3pUTR|ENSG00000196715|msi1_unk|FALSE|overlapping (ssRNA)
# RNA: GGGAGUUCUACAGUCCGACGAUCCAUCUGCAUCGUCACGUACGUGCUGAACUUCCUUCUUCUCAUUAUCAACUACAAACGACUAGUUUACUUGAACGAGGCCUGGAAGCGGCAGCUGCAACCCAAGCAGGACUGACGCCCGACCAACAGAGGAUUGAGCAUCA
# B4: chr6:145799413:145799514:-|3pUTR|ENSG00000118496|msi1|FALSE|bound_elsewhere (ssRNA)
# RNA: GGGAGUUCUACAGUCCGACGAUCUUAUCUCACAUACUUACAACUCAACACACAGAGUGACCAUGUGCAGCUUUCUUUUUUGUUAGAUGCCACAUCCGAAGACUCAUCGCAGUGUGUUAUAUGACAGGACAAAGCAAAAACAAACAACAGAGGAUUGAGCAUCA
# B5: chr19:21971193:21974807:-|CDS|ENSG00000160321|control|control|control (ssRNA)
# RNA: GGGAGUUCUACAGUCCGACGAUCCACAAGAAAAUUCAUACUGGAGAGAAACCCUACAAAUGUGAAGAAUGUGGCAAAGCCUUUAGUACGUUCUCAAUCCUCACUAAACAUAAGGUAAUUCAUACUGGAGAGAAACCCUACAAACAACAGAGGAUUGAGCAUCA
# B6: chr3:25618756:25618858:-|CDS|ENSG00000077097|unk|FALSE|unique (ssRNA)
# RNA: GGGAGUUCUACAGUCCGACGAUCUAUAUAAGUUAAAAUACCAGUACAGAUCUAUAUGAUCUGCAAAGUAUAUGUGUUUUGCUUAGGUACUUUUUGAUCAUAUGGGAUGUCUGAAGAAAUAUGAAACUGUGCAAGACAUUCUGACAACAGAGGAUUGAGCAUCA
# B7: chr9:101390585:101390694:-|CDS|ENSG00000136897|unk|FALSE|unique (ssRNA)
# RNA: GGGAGUUCUACAGUCCGACGAUCUAAUUGGCAAGACAUCUCCCUGGAAGAUAGUCGUCUAAAGUUCAAUCUUCUGGCUCAUUUAGCUGAUGACUUGGGUCAUGUAGUCCCUAACUCCAGACUCCACCAGAUGUGCAGGGUUAGCAACAGAGGAUUGAGCAUCA
# B8: chr3:48857559:48857660:-|3pUTR|ENSG00000178537|unk|total|mutant (ssRNA)
# RNA: GGGAGUUCUACAGUCCGACGAUCGGCUGAAGGCUGCUCAAGUUCACUUCUGGAUGCUGGAAGCUGUCGUUGAGGAGAAGGAGCCGUAAGCAGAACUAAGCAGUCUUGGAGGGCAAGGGGAGGGGAAUGGUGAGAUCCGAGCCCCAACAGAGGAUUGAGCAUCA
# B9: chr19:18929200:18929442:-|three_prime_utr|ENSG00000051128|control|control|control (ssRNA)
# RNA: GGGAGUUCUACAGUCCGACGAUCCGGGGCUGGUUUUCUAUGAACGAUUCCGGCCUGGGAUGCGGGCCAGGCUGCAGGCGGCAUAGUUGGGCCCAUUCGUCCUGGAAAGGGACUGGGGGGUCCCAACUUAGCCCUGGGUGGGCCCAACAGAGGAUUGAGCAUCA
# B10: chr17:42200006:42200107:-|3pUTR|ENSG00000173757|unk|FALSE|unique (ssRNA)
# RNA: GGGAGUUCUACAGUCCGACGAUCAAGCUGCCGUUUGCCUUGGCUUGGUUUCAUACACUGAUUUAUUUUUCUAUGCCAGGCAGUAGAGUCUCUCUGCCUCUGAGGAGCAGGCUACCCGCAUCCCACUCAGCCCCUCCCUACCCCCAACAGAGGAUUGAGCAUCA
# B11: chr10:89774496:89774597:+|3pUTR|ENSG00000138182|msi1|FALSE|bound_elsewhere (ssRNA)
# RNA: GGGAGUUCUACAGUCCGACGAUCAAGAUCUCAAGUCUUUAAUUAGAAUGUCUCACUUAUUUUGUAAACAUUUUGUGGGUACAUAGUACAUGUAUAUAUUUACGGGGUAUGUGAGAUGUUUUGACACAGGCAUGCAAUGUGAAACAACAGAGGAUUGAGCAUCA
# B12: chr10:131940083:131940120:+|CDS_3pUTR|ENSG00000175470|msi1_unk|total|mutant (ssRNA)
# RNA: GGGAGUUCUACAGUCCGACGAUCAUAUAAUGUUUACAGCACCUUUCAAAGUCAUGAACCGGAGUUUGACUAUUUGAAAAGUCCCGAAAUUGAGGAAAAAAUUAAUAAAAUCCGGUGGUUACCACAACAGAAUGCUGCUCAUUUCAACAGAGGAUUGAGCAUCA
# B13: chr16:8795179:8795951:-|three_prime_utr|ENSG00000184857|control|control|control (ssRNA)
# RNA: GGGAGUUCUACAGUCCGACGAUCCCUGGGAACAUGUGUUUUGUGGUGAAUAAAUUCACAAGGCAAGAGCUGGUGUACAGGUUUAGGAAAAAGGCUCUAAGCAAGUUCUUACAGCACUUGUUUGUGACAUUCAGUCAGAUAAUGCAACAGAGGAUUGAGCAUCA
# B14: ENSG00000198589:be:win_6901|CDS|ENSG00000198589|bound_else_gene|NA|bound_elsewhere_windowed (ssRNA)
# RNA: GGGAGUUCUACAGUCCGACGAUCCUUGCAUGGCUGCUAAGAAUAGAACCCUUUACAACUUAUUUCCUAAAUUUGCAAGGAGGCAAAUUUGAUCAUGCAGAUCGAACUUUUUCAUCAAUUUCCAGAGCUUGGCGAAACAGUCAGCAACAGAGGAUUGAGCAUCA
# B15: ENSG00000070961:be:win_4751|3pUTR|ENSG00000070961|bound_else_gene|NA|bound_elsewhere_windowed (ssRNA)
# RNA: GGGAGUUCUACAGUCCGACGAUCGAAAAAGGUUAAUAAGUAGAAGCAUACAUGUUUUCCUUUUGUUUUUGAAACUUGUUUGUAAACAUAAAUAAAUAUGCCCUUUUAUUAAAUAAAUUCAUGGCAAUGUUUUUUUAAAAGACACAACAGAGGAUUGAGCAUCA
# B16: ENSG00000107863:be:win_301|CDS|ENSG00000107863|bound_else_gene|NA|bound_elsewhere_windowed (ssRNA)
# RNA: GGGAGUUCUACAGUCCGACGAUCACCAUAUUUGUUAAGCAAGUUAAAGAAGGAGGACCUGCUUUUGAAGCUGGAUUAUGUACAGGUGACCGAAUUAUAAAAGUCAAUGGAGAAAGUGUUAUUGGCAAAACCUAUUCCCAAGUACAACAGAGGAUUGAGCAUCA
# B17: chr17:30468017:30468118:+|3pUTR|ENSG00000108582|unk|FALSE|unique (ssRNA)
# RNA: GGGAGUUCUACAGUCCGACGAUCGCUAAAAUUUUGGGGAUAUGAUUUGGGUCUUUGAUUAAUGUCAGCUGAACUUGGAUUUCUAGUUCAUGAAGAAAUCUCUCCCAAUACCCAUUUAUCCUAUUUUUAGCAAUAAUUCGUUAACAACAGAGGAUUGAGCAUCA
# B18: chr8:93923365:93923466:+|CDS|ENSG00000164951|msi1|total|mutant (ssRNA)
# RNA: GGGAGUUCUACAGUCCGACGAUCGCAGGAUGUGGUCCGGAUUGUGGGUGAGUACCUAACUGGCAUGCAUCACCAACAGCCAACCGCUGUUGGUGGCUACAAGGUGACUCUGGGACAGAUGCAUGGCCUUUUAACAGAAAGGAGCAACAGAGGAUUGAGCAUCA
# B19: chr12:48147896:48148005:-|3pUTR|ENSG00000177981|unk|FALSE|unique (ssRNA)
# RNA: GGGAGUUCUACAGUCCGACGAUCCUGCUUUAGUGAACGAUACUCUUUCAUUUUUCUAAAUUAGAUCAAGUUGUUAUUGAUUUUAGAUGACUUGUAUGCAAAUUUGAAAAACUUUUUUUUUUAAAGCUGAUUGGGAACUACAAACAACAGAGGAUUGAGCAUCA
# B20: chr1:45003092:45003193:-|3pUTR|ENSG00000126107|msi1|total|mutant (ssRNA)
# RNA: GGGAGUUCUACAGUCCGACGAUCGGAAUCUUCCACAAGCCCAGCACAAGCUGCCAGGCCUGAGCUACUUGAAGGGGGCCAUCCCGGUCCCCAACCCAUGGACUUUGCCUCCAUUUUCAGCUCCGCCUUUUUUCUCCUAUUUUCCAACAGAGGAUUGAGCAUCA
# B21: chrX:101163201:101163302:+|3pUTR|ENSG00000102384|unk|total|mutant (ssRNA)
# RNA: GGGAGUUCUACAGUCCGACGAUCUCAUCAUCAGGCUCUGCGUUCUACCAAAUUGUAUGUAAAAAGACACAUCUGUUUUGUGGCCGGAUUUUUUCACAUUUUUGGGUACUAUGAGCUGCAUUGAUGGAAGACAGCAGGCAAUAUCAACAGAGGAUUGAGCAUCA
# B22: chr11:108172639:108172748:-|CDS|ENSG00000149308|unk|total|mutant (ssRNA)
# RNA: GGGAGUUCUACAGUCCGACGAUCGUUAUCAUCCGUGAUGAUCCAUUUGUUUCCUCAGAUACUGAACUUACCAGUGCUGUUUCCCGUAUUAAUGGAGAAAACCUGCCAACUAUAAUCUUGUCUUCUCCUACUAAAUCACCUACUCAACAGAGGAUUGAGCAUCA
# Target: T1, UNK ZnF1-6 (called full-length)
# Experiment: nsRBNS (natural sequence RNA bind-n-seq); RBNS binding buffer (assumed for nsRBNS): 25 mM Tris pH 7.5, 150 mM KCl, 3 mM MgCl2, 0.01% Triton X-100, 500 ug/ml BSA, 20 U/ml SUPERase-In, 4 C; UNK is unkempt and MSI1 is Musashi-1; names of the RNAs are library labels; protein concentration not given here; high values mean tight binding
row,Binder,binding signal
1,B1,0.596 enrichment R
2,B2,0.502 enrichment R
3,B3,0.834 enrichment R
4,B4,0.267 enrichment R
5,B5,0.239 enrichment R
6,B6,0.4 enrichment R
7,B7,0.572 enrichment R
8,B8,1.01 enrichment R
9,B9,0.919 enrichment R
10,B10,0.936 enrichment R
11,B11,0.474 enrichment R
12,B12,0.554 enrichment R
13,B13,0.531 enrichment R
14,B14,0.684 enrichment R
15,B15,0.52 enrichment R
16,B16,0.314 enrichment R
17,B17,0.512 enrichment R
18,B18,0.603 enrichment R
19,B19,0.7 enrichment R
20,B20,0.589 enrichment R
21,B21,0.298 enrichment R
22,B22,0.361 enrichment R
